These results are taken from PMC10726135.

The list shows a part of the results. At the low end of the ranking the order means little. Measured with an extract: partners may take part in the binding.

The assay addresses T1, HNF4alpha8 (COS-7 nuclear extract) (UniProt P41235-5).
T1 sequence: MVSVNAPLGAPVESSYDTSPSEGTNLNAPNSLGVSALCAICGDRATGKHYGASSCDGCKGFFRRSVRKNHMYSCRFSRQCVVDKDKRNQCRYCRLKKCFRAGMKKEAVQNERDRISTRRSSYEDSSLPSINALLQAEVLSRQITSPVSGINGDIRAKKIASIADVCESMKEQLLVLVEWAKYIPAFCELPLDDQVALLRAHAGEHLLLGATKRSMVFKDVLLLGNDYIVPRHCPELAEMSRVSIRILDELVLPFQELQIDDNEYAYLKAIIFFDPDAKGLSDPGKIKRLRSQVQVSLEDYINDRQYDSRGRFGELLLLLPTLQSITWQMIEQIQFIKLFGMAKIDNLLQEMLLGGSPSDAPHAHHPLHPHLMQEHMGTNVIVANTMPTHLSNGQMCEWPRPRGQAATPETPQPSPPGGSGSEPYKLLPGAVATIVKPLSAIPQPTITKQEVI
Briefly: protein-binding microarray. The conditions noted are these: COS-7 nuclear extract on double-stranded Agilent 4x180k PBM; binding buffer, salt, pH and temperature not given; high values mean tight binding; double strand, one strand shown; sequences stand for … in …GCCTAGGGAGATTAGAGTATCGGTCGA
In the case of TCAAGGAAGAGAACTCCCTATCCCCAGATT, the binding signal (log2 normalized intensity) turned out to be 2.35. As for GTGGCCATGATGCCATCTGGTGAAGCTTAT, the binding signal (log2 normalized intensity) was -0.778. For the sequence AGTCCGTTACAGACAGGCAGCCCCTGGAAA, the binding signal (log2 normalized intensity) was -1.27. On to CATCACATTCCCCAGGCAATCTTCCAGTCC, for which the binding signal (log2 normalized intensity) is 0.591. As to CTCTGTATTGTAAAAGAAAGTGAGCAGGCA, the binding signal (log2 normalized intensity) is -0.689. Consider TGTGTTGACCGATAACCCTCCTGAACATAA, for which the binding signal (log2 normalized intensity) came to 0.902. As for CCAAAATGGCGACAAGAGTGACCTCTGGTC, the binding signal (log2 normalized intensity) was determined as 5.71. Turning to AGGCGGAAGTAAGGCGGAAGTACTGCCCTT, the binding signal (log2 normalized intensity) worked out at 2.03.

For AACTACAAACGGATATTTGATCAAAGGTCA, the binding signal (log2 normalized intensity) was 6.27. For TTCACACTCCCACCAGCATGGTGATGCTAG the value was -1.3. On to GCCAGATAGCCACTGGGGTCATGGAGCTGG, for which the binding signal (log2 normalized intensity) was found to be 1.43.

As for CCATCTTGCCCACCAATGATCAAAGGTTAG, the binding signal (log2 normalized intensity) worked out at 4.73.

For TGTTCATTCATTCACCTTTCGCCCTTTGTC, the binding signal (log2 normalized intensity) was determined as 4.49. Consider ACGCAGGCCTGCAAGCTCCTGGTTGGGGCC, for which the binding signal (log2 normalized intensity) is -1.06.

On to CTCACAGAAAGAAGAGACAGCTGGGCCCTG, for which the binding signal (log2 normalized intensity) was -1.34. For TTGGGGCTGATGTCTTTCTGGCCAGAGGGG, the binding signal (log2 normalized intensity) is 0.573. For AGCAGCATAAAGGACTTTCAACCCTGTGAT the value was 3.89; for GCCTCTGGGCTTTGATGGACATTGCTGGTG, 1.01. Under CTATCACCTCTCCCACCTGAATTATTGTAT stands 1.97. For GGGAGCAGGCAGATTTGACCTACGGACCAT, the binding signal (log2 normalized intensity) was found to be 4.8. Take CAGGGTCAGAAGGGAGGTAGTCGCCCTCCG: the binding signal (log2 normalized intensity) is -0.202. For AAATAAAGCAGCAAACCAGATAAGACTATC the value was -1.33.

Regarding AAGCAAGACTGCAGGGTCATAGCTTTATCT, the binding signal (log2 normalized intensity) came to 0.165. Turning to CAATAAGCCAGTGAACCTTTGTCCCGTTAT, the binding signal (log2 normalized intensity) is 3.81. Take GGAGACCTGAAACTAGACCAAGAAGACTTT: the binding signal (log2 normalized intensity) is -0.267. In the case of GCAAAAATGCCAGGCATTTGCGATAATAGA, the binding signal (log2 normalized intensity) is -1.36.

For TTAGCTATCAGTGTTGACCTCTGGACCTCA, the binding signal (log2 normalized intensity) came to 7.79. As to AGCACAACCCGGGCGCACAAGATGCCGCCT, the binding signal (log2 normalized intensity) is -1.15.

As to GGAGAACAAAGTTCACCTTTCCCTTCTTCT, the binding signal (log2 normalized intensity) turned out to be 3.4. Under GAGAGAGAGAGAGGTGGGCAAAGGTCTCAA stands 3.68; under TCACAAAGGGCTGAGGTTAAAGTCCACATT, 8.03; under GAATTCTCTAAGTAATCAATGGTTGCACTC, 1.27. On to GATAACTGGGGGCAAAGGTTCACTTTGGGG, for which the binding signal (log2 normalized intensity) amounted to 5.18. Turning to GGCCACAGACCCCCGGTGGAGCAGCTTTCT, the binding signal (log2 normalized intensity) came out at 1.81.

Turning to GCAGTGAAATTCTGGCCAACCAGCACTTCT, the binding signal (log2 normalized intensity) was -1.38. For the sequence CTGAATAAAACAAACTCATTTTGATCTTTG, the binding signal (log2 normalized intensity) was 2.87. In the case of CAGAGCAAAGGGCTTATTTTAGGAGCCTCC, the binding signal (log2 normalized intensity) was -1.3.

For the sequence CAGAGAAGCCGTGGTGCTGTCCAAGGTGCT, the binding signal (log2 normalized intensity) was -1.22. On to CCTGCTGCTGGCTGGCGGCCTTTGGGTCCC, for which the binding signal (log2 normalized intensity) was 1.31. For TCAGCCATCTCCCCAGGGAGGCCTGGGCCC, the binding signal (log2 normalized intensity) is -1.31. For AGGGCAAAGGTCAGAGGCTGATTTCTCAGG, the binding signal (log2 normalized intensity) was found to be 5.36. Under AACTTGGTTACAGGACCAGGTGTAGATAAA stands 0.419; under AGAAGACCAAACAACCAGGGAGATGTGAGC, -1.43; under CAGTGCAAACACACAATATTGACATTCCAG, -1.01. For CGGCGGAGCCTCCGGCCTGAGGCAGGATCA the value was -1.3. With AAGACTAACCTTTGACCATCCACGGGTCCA, the binding signal (log2 normalized intensity) was 5.41. Consider TACTGGTTGAATGGACGGACAGGTAACGTA, for which the binding signal (log2 normalized intensity) turned out to be 0.899. Under TGACCCCTCCCCTCCCCCTTGGTGTTTAAA stands 5.48. On to TGTGTGTAACATTTGACTTCCCCAAAACTT, for which the binding signal (log2 normalized intensity) is 2.5. On to ATCTTTTTAGCAACTGGTATGTTAGATTAG, for which the binding signal (log2 normalized intensity) is 1.09. For TGTGCTAGATACTGGAGATATGTTGCTGGA, the binding signal (log2 normalized intensity) worked out at 0.67. As for GACAAATCTCACTGATAGTCTCCTATCAAG, the binding signal (log2 normalized intensity) is -1.24. On to GTCCTGCACATGAATGATCAAAGGTTGGTT, for which the binding signal (log2 normalized intensity) turned out to be 4.3. As for TAACATTAATGGAAATGCCTAGGATACCTA, the binding signal (log2 normalized intensity) was -1.19.

Consider CAGCTGTTATGAGTCTGTTGTCTAACATTT, for which the binding signal (log2 normalized intensity) worked out at 0.597. Regarding GTGACTTGAAAGGGACTTAGAATCGAATTG, the binding signal (log2 normalized intensity) was -0.0805.

In the case of TAAGGGAGATGAAAGGGGCCTCAGAGAAAG, the binding signal (log2 normalized intensity) is -1.29. With ACTTAAAAAAATCTAGTTTAGGATTTTAGC, the binding signal (log2 normalized intensity) was -0.542. As to ATTCTCTAGAATCTAGAAAATGCAAGGAAA, the binding signal (log2 normalized intensity) is -1.17. Consider TCTTTGAATGGACTCTGAGACCTGTGATGG, for which the binding signal (log2 normalized intensity) came out at 3.61. For the sequence CAGGAGCAGAAGCAGGCCTCGGGCCTGCGA, the binding signal (log2 normalized intensity) is -1.32. Regarding GCAGCCGCCGGAGAATTAAACTGCCGCGCC, the binding signal (log2 normalized intensity) is -1.29. For CAGCAACCGCCTACCTTTGGACTTCTCATT the value was 3.88; for TTGGACTCTGCCACTGGTTTGCACACACCA, 1.94; for ATTTACAAACAAATGCAAAACTGGCAAAAC, -1.37. For the sequence TACTTTTCAGGAACTGTTCTTTGACTCAGT, the binding signal (log2 normalized intensity) was determined as 1.58. In the case of CCAGGTCCACAGTGCACATTCCAGAGAAAT, the binding signal (log2 normalized intensity) is -1.36. Turning to CTGTGGGGAGGTTATCTCGGGGATGGCATG, the binding signal (log2 normalized intensity) was determined as 0.591. In the case of CCTAGCCCTCTTTCAAAGACAAATATCGAC, the binding signal (log2 normalized intensity) was -0.514.

Consider AGCAGCTACATAAGGGTAGAGACCTTTGTT, for which the binding signal (log2 normalized intensity) came out at 2.77. With ATGCAGCTAAAAGCAGCATCCCTGATAAAC, the binding signal (log2 normalized intensity) was -1.38. Turning to CTTACCTGCCAAATATTGGGCAATGCTAGG, the binding signal (log2 normalized intensity) is -1.4. For GGCTTCACAATTCCTAGCAATTCAAATTCT the value was -1.05.
